# PMC6212790
# This is one part of the list. At the low end of the ranking the order means little.
# Target: T1, GST-Rok-C97-191 (UniProt O34857)
# T1 sequence: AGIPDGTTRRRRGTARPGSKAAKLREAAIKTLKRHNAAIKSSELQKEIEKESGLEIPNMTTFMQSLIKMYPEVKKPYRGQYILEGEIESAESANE
# Test: protein binding microarray;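 also: rank score from −0.5 (least bound) to 0.5 (best bound)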
# Conditions: Rok is a gene silencer of Bacillus subtilis; high values mean tight binding; most listed sequences are background and not binding sites; double strand, one strand shown
row,Sequence,binding signal [E-score]
1,CCAGTCGC,-0.105
2,GGGTCCGA,-0.227
3,ATGGGACG,-0.108
4,ACATAGAT,0.33
5,AGACTCAC,-0.132
6,ACGTCCAA,-0.0558
7,AAGGTGCT,0.009
8,ATGAAAAT,0.167
9,TGGGAACA,0.0153
10,ATTGTTAG,0.193
11,CAATCCGA,0.0261
12,AATTGTGG,0.088
13,CCGCAAGA,-0.109
14,ATCATCAG,-0.142
15,CTGCACGC,-0.0707
16,AATCTAAC,0.199
17,CACCTCGG,-0.233
18,AAAATTTA,0.282
19,AAACCTAC,0.227
20,ATCGTTTG,-0.0549
21,CATAAGCC,-0.142
22,CTGTCCGA,0.0343

row,Sequence,binding signal [E-score]
1,AAGCTGAT,-0.0275
2,TAGGTGGA,-0.0951
3,GTAGCCCA,-0.291
4,CCAGACGA,-0.0847
5,ATGCTCTC,-0.0084
6,CACGAGTG,-0.0068
7,ACTAAGGC,-0.0444
8,TGACCTCA,-0.014
9,AAGGGCAT,0.0288
10,CGCGGGTC,-0.341
11,TGGGGACA,-0.181
12,CAGGGTCG,-0.239
13,ACGTGGAC,-0.17
14,CGTGTTAA,0.0907
15,CGATCCAG,-0.0429
16,ATCCGAGC,-0.15
17,CAAGGTGC,-0.283
18,ACCCCCAG,-0.214
19,CGATTCCG,0.0559
20,TAGATCCA,0.112
21,AGTTTGTG,0.23
22,CATAAAAC,0.214

row,Sequence,binding signal [E-score]
1,AGGTGCGA,-0.165
2,CATTACAA,0.0699
3,GACTTAGA,-0.0858
4,GCCTAGAA,0.124
5,AAGGGGGA,-0.218
6,ATTTCGAG,0.0977
7,CATAAAAA,0.178
8,CCAACGAA,-0.0756
9,AAGTCCAG,0.0873
10,AGGCGCTC,-0.35
11,ATATTTAG,0.201
12,AACGGGAT,0.106
13,GACCTTGA,-0.112
14,AGAGTTAG,0.137
15,TATGAGGA,0.0253
16,CGTGTGGA,-0.0534
17,AATGAAGT,0.106
18,CGACTCTC,-0.174
19,ATTTCGCC,-0.0121
20,GATTCGCC,-0.261
21,CTAAACAC,0.00902
22,ACAACGGG,-0.136

row,Sequence,binding signal [E-score]
1,CACAATGC,-0.0369
2,TACAGCCA,-0.2
3,ATTATAGC,0.189
4,GTCCAAGA,-0.0166
5,CGACATTA,0.0731
6,AAAGTCCA,-0.0237
7,GTGTCAAC,-0.214
8,AGGGGACG,-0.274
9,CCTCATAG,-0.0799
10,ATGGGTCA,-0.0833
11,AGTAGGGA,0.0797
12,CAAGCAGA,0.0345
13,CTCACAAC,0.143
14,CCTCGCAG,-0.24
15,AATAGCTC,0.179
16,CAGATAGC,0.0948
17,AATCGTTG,-0.0522
18,CCTGAAGG,-0.247
19,CCGTCGCC,-0.323
20,GGAACAGA,-0.167
21,CCACTATC,0.0612
22,CCGTCCAG,-0.2

row,Sequence,binding signal [E-score]
1,TGGAATAA,0.171
2,CTTAGTGA,-0.0497
3,CAAAGCGG,-0.0606
4,ACTTAACT,0.219
5,CCCTCCCG,-0.221
6,CAGGACAA,-0.0587
7,AAGCCATA,0.0114
8,ACGGCATA,-0.0674
9,GTTAATAA,0.309
10,ACTTACGC,0.00924
11,CTGTATGC,-0.0958
12,AGTGAGTC,-0.043
13,AACTACCG,0.41
14,CTCTTATC,0.0165
15,ACCAAACC,0.0692
16,AGACCTCT,-0.134
17,ATAGGAAA,0.17
18,AGCCGAAA,0.191
19,CGGTTGTA,0.292
20,CACTTCGA,-0.12
21,CTAACGGA,-0.00053
